In the antibiotic and cytotoxicity screens of Wong et al. (2023):
Some of the results follow.

Columns and labels:
[1] = tested on: HSkMC (human skeletal muscle cells); assay: cytotoxicity call (relative viability < 0.9); conditions: 10 µM
[2] = tested on: HepG2; assay: cytotoxicity call (relative viability < 0.9); conditions: 10 µM
[3] = tested on: S. aureus RN4220; assay: growth inhibition call (relative growth <= 0.2); conditions: 50 µM

Row | SMILES | cytotoxicity call [1] | cytotoxicity call [2] | growth inhibition call [3]
1 | COc1ccc(cc1)NC(=O)N1C[C@]2(C1)CN([C@@H](CO)c1[nH]c3cc(ccc3c12)OC)C(=O)CN1CCOCC1 | inactive | inactive | inactive
2 | C[C@@H]1CN([C@@H](C)CO)C(=O)CCCn2nncc2CO[C@@H]1CN(C)Cc1ccc(C(=O)Nc2ccccc2N)cc1 | inactive | inactive | inactive
3 | Cc1noc(C)c1S(=O)(=O)N(C)C[C@H]1Oc2ccc(NS(=O)(=O)c3cccs3)cc2C(=O)N([C@H](C)CO)C[C@H]1C | inactive | inactive | inactive
4 | Cc1noc(C)c1S(=O)(=O)N(C)C[C@H]1Oc2ccc(NS(=O)(=O)c3ccc(F)cc3)cc2CC(=O)N([C@H](C)CO)C[C@@H]1C | inactive | inactive | inactive
5 | CO[C@@H]1CN(C)C(=O)c2ccc(NC(=O)C3CC3)cc2OC[C@H](C)N(C(=O)Cc2ccccn2)C[C@@H]1C | inactive | inactive | inactive
6 | O=c1nc[nH]c2nc[nH]c12 | inactive | inactive | inactive
7 | Cc1ccc(C(N)=O)cc1N(C)S(C)(=O)=O | inactive | inactive | inactive
8 | C=C(CC[C@@H](C)[C@H]1CC[C@@]2(C)C3=C(C[C@H](O)[C@]12C)[C@@]1(C)CC[C@@H](OC(=O)CC(=O)O)C(C)(C)[C@@H]1CC3)[C@@H](C)C(=O)O | inactive | inactive | inactive
9 | Cc1cc2nc3c(=O)[nH]c(=O)nc-3n(C[C@H](O)[C@H](O)[C@H](O)COP(=O)(O)OP(=O)(O)OC[C@H]3O[C@@H](n4cnc5c(N)ncnc54)[C@H](O)[C@@H]3O)c2cc1C | inactive | inactive | inactive
10 | Cc1ccc(S(=O)(=O)Nc2ccc3c(c2)C(=O)N([C@@H](C)CO)C[C@H](C)[C@@H](CN(C)C(=O)Nc2ccc(F)cc2)OCCCC[C@H](C)O3)cc1 | inactive | inactive | inactive
11 | C[C@@H]1CN([C@@H](C)CO)C(=O)c2cc(NC(=O)Nc3ccc(C(F)(F)F)cc3)ccc2O[C@@H](C)CCCCO[C@@H]1CN(C)C(=O)Nc1cccc2ccccc12 | active | inactive | inactive
12 | COc1ccccc1CNC(=O)C[C@@H]1C[C@H]2c3cc(NS(=O)(=O)c4ccc(F)cc4)ccc3O[C@H]2[C@H](CO)O1 | inactive | inactive | inactive
13 | COCC(=O)Nc1ccc2c(c1)C(=O)N(C)C[C@H](OC)[C@@H](C)CN(C(=O)c1ccccc1F)[C@@H](C)CO2 | inactive | inactive | inactive
14 | O=C(O)c1ccc(N[C@@H]2OC[C@H](O)[C@@H](O)[C@@H]2O)cc1 | inactive | inactive | inactive
15 | COCC(=O)N1C[C@H](C)[C@H](OC)CN(C)C(=O)c2cc(NC(=O)c3cc(C)on3)ccc2OC[C@@H]1C | inactive | inactive | inactive
16 | C[C@H](CO)N1C[C@H](C)[C@H](CN(C)S(C)(=O)=O)Oc2ccc(NC(=O)CCC(F)(F)F)cc2C1=O | inactive | inactive | inactive
17 | C[C@@H]1CCCCO[C@@H](CN(C)Cc2ccccc2)[C@@H](C)CN([C@@H](C)CO)C(=O)c2cc(NC(=O)Nc3ccc(C(F)(F)F)cc3)ccc2O1 | active | active | inactive
18 | C[C@@H]1CCCCO[C@H](CN(C)S(=O)(=O)c2cccs2)[C@H](C)CN([C@H](C)CO)C(=O)c2cc(NC(=O)Nc3ccc(F)cc3)ccc2O1 | inactive | active | inactive
19 | CO[C@@H]1CN(C)C(=O)c2ccc(NS(=O)(=O)c3cccc(C)c3)cc2OC[C@@H](C)N(Cc2cc(F)ccc2F)C[C@H]1C | inactive | inactive | inactive

Row | SMILES | cytotoxicity call [1] | cytotoxicity call [2] | growth inhibition call [3]
20 | Cc1noc(C)c1S(=O)(=O)Nc1ccc2c(c1)C(=O)N([C@@H](C)CO)C[C@H](C)[C@H](CN(C)CC1CCCCC1)OCCCC[C@H](C)O2 | inactive | inactive | inactive
21 | CC(O)(CC(=O)O)CC(=O)O | inactive | inactive | inactive
22 | C[C@@H]1CN([C@H](C)CO)C(=O)Cc2cc(NC(=O)CCCCCC(=O)Nc3ccccc3N)ccc2O[C@@H]1CN(C)Cc1ccccc1 | inactive | inactive | inactive
23 | CS(=O)(=O)N1CCCn2c(nc(CNC(=O)CC3CC3)cc2=O)C1 | inactive | inactive | inactive
24 | Cc1noc(C)c1S(=O)(=O)N(C)C[C@@H]1OCCCC[C@H](C)Oc2ccc(NS(=O)(=O)c3cn(C)cn3)cc2C(=O)N([C@H](C)CO)C[C@@H]1C | inactive | inactive | inactive
25 | COc1ccc(NC(=O)Nc2ccc3c(c2)C(=O)N([C@@H](C)CO)C[C@H](C)[C@H](CN(C)Cc2ccc(C(F)(F)F)cc2)OCCCC[C@@H](C)O3)cc1 | inactive | inactive | inactive
26 | COc1ccc(S(=O)(=O)Nc2ccc3c(c2)CC(=O)N([C@H](C)CO)C[C@H](C)[C@H](CN(C)C(=O)NC(C)C)O3)cc1 | inactive | inactive | inactive
27 | COc1ccc(NC(=O)N(C)C[C@@H]2Oc3ccc(NC(=O)Cn4cnnn4)cc3C(=O)N([C@H](C)CO)C[C@H]2C)cc1 | inactive | inactive | inactive
28 | C[C@H](CO)N1C[C@H](C)[C@H](CN(C)S(=O)(=O)c2cccs2)Oc2ncc(-c3cccc(F)c3)cc2C1=O | inactive | inactive | inactive
29 | C[C@@H]1CN([C@@H](C)CO)C(=O)c2cc(NC(=O)Nc3ccccc3)ccc2O[C@@H](C)CCCCO[C@@H]1CN(C)Cc1ccncc1 | inactive | inactive | inactive
30 | C[C@@H]1CCCCO[C@@H](CN(C)Cc2ccccc2)[C@@H](C)CN([C@H](C)CO)C(=O)c2cc(NC(=O)Nc3ccccc3)ccc2O1 | inactive | inactive | inactive
31 | C[C@H](CO)N1C[C@H](C)[C@@H](CN(C)S(=O)(=O)c2cccc(F)c2)Oc2ncc(C#CC3CC3)cc2C1=O | inactive | inactive | inactive
32 | FC(F)(F)CN1CCNCC1 | inactive | inactive | inactive
33 | COc1ccc(S(=O)(=O)N2CCC(N3C[C@H]4CC[C@@H](N)[C@@H]4C3)CC2)cc1 | inactive | inactive | inactive
34 | CO[C@H]1O[C@H]2CO[C@H]([C@@H]1O)[C@@H]2O | inactive | inactive | inactive
35 | O=C(C[C@@H]1CC[C@H]2[C@@H](COC[C@@H](O)CN2C(=O)c2ccccn2)O1)NC1CCC1 | inactive | inactive | inactive
36 | COc1ccsc1C(N)=O | inactive | inactive | inactive
37 | NS(=O)(=O)c1ccc(CCn2ccn(CC(=O)NCCC3=CCCCC3)c(=O)c2=O)cc1 | inactive | inactive | inactive
38 | O=C(C[C@@H]1CC[C@H]2[C@@H](COC[C@@H](O)CN2C(=O)Nc2ccc(Cl)c(Cl)c2)O1)NCc1ccncc1 | inactive | inactive | active

Row | SMILES | cytotoxicity call [1] | cytotoxicity call [2] | growth inhibition call [3]
39 | C[C@H](CO)N1C[C@H](C)[C@H](CN(C)S(=O)(=O)c2ccccc2)Oc2c(NS(=O)(=O)c3cccs3)cccc2C1=O | inactive | inactive | inactive
40 | C[C@@H]1CCCCO[C@H](CN(C)C(=O)c2ccccc2)[C@@H](C)CN([C@H](C)CO)C(=O)c2cc(NS(=O)(=O)c3ccc(Cl)cc3)ccc2O1 | inactive | inactive | inactive
41 | CN1Cc2c(CN3CCCC3=O)nn(C)c2C1 | inactive | inactive | inactive
42 | C[C@H](CO)N1C[C@H](C)[C@@H](CN(C)Cc2ccc(C(F)(F)F)cc2)Oc2ccc(NC(=O)CCCCCC(=O)Nc3ccccc3N)cc2C1=O | inactive | inactive | inactive
43 | C[C@H]1CN([C@@H](C)CO)C(=O)c2cc(NS(=O)(=O)c3ccc(Cl)cc3)ccc2O[C@H]1CN(C)Cc1ccc(-c2ccccc2)cc1 | inactive | inactive | inactive
44 | C[C@@H]1CN([C@H](C)CO)C(=O)c2cc(NC(=O)Cn3cnnn3)ccc2O[C@H]1CN(C)C(=O)Nc1ccc(C(F)(F)F)cc1 | inactive | inactive | inactive
45 | COc1ccc(NC(=O)Nc2cccc3c2O[C@@H](CN(C)CC2CCCCC2)[C@@H](C)CN([C@@H](C)CO)C3=O)cc1 | inactive | inactive | inactive
46 | CCN1C(=O)C[C@@H]2[C@@H]1CCN2S(=O)(=O)c1cn(C)cn1 | inactive | inactive | inactive
47 | Cc1ccc(S(=O)(=O)N2C[C@@H](O)COC[C@H]3O[C@@H](CC(=O)NCc4ccc(Cl)c(Cl)c4)CC[C@@H]32)cc1 | inactive | inactive | inactive
48 | Cn1cnc(S(=O)(=O)N[C@H]2CC[C@H](CC(=O)NCC3CC3)O[C@H]2CO)c1 | inactive | inactive | inactive
49 | CNC(=O)c1c(O)c2ccccc2n(C)c1=O | inactive | active | inactive
50 | C[C@H]1CCCCO[C@H](CN(C)Cc2ccc(C(F)(F)F)cc2)[C@@H](C)CN([C@@H](C)CO)C(=O)c2cc(NS(=O)(=O)c3ccc(Cl)cc3)ccc2O1 | active | inactive | inactive
51 | CC(C)NC(=O)Nc1ccc2c(c1)CC(=O)N([C@H](C)CO)C[C@@H](C)[C@@H](CN(C)Cc1ccc(Oc3ccccc3)cc1)O2 | active | active | inactive
52 | C[C@H](CO)N1C[C@H](C)[C@@H](CN(C)Cc2ccc(Cl)c(Cl)c2)Oc2ccc(NC(=O)Nc3ccccc3)cc2C1=O | inactive | inactive | inactive
53 | COc1ccc(CN(C)C[C@H]2OCCCC[C@H](C)Oc3ccc(NC(=O)Nc4ccccc4)cc3C(=O)N([C@H](C)CO)C[C@@H]2C)cc1 | inactive | inactive | inactive
54 | CC(C)(C)C(=O)N[C@@H]1CC(=O)N(C2CC2)C1 | inactive | inactive | inactive
55 | Cc1noc(C)c1S(=O)(=O)N(C)C[C@@H]1Oc2c(NC(=O)C3CC3)cccc2C(=O)N([C@@H](C)CO)C[C@@H]1C | inactive | inactive | inactive
56 | O=C(CCNNC(=O)c1ccncc1)NCc1ccccc1 | inactive | inactive | inactive
57 | N=C(N)NCCN1CCCCCCC1 | inactive | inactive | inactive
